From paper PMC6823436, “Phase separation of Polo-like kinase 4 by autoactivation and clustering drives centriole biogenesis” (Nature Communications, 2019)
Residue numbers refer to the chain shown, from its start. These are yes or no findings as the source states them, for the method shown. Binding seen in cells or lysates may run through a third protein. Some binding calls cover weakened binding; strength is not graded here.

B1: Cep152 (1–217) N-terminal fragment (domain or fragment, UniProt O94986 1-217)
chain: MSLDFGSVALPVQNEDEEYDEEDYEREKELQQLLTDLPHDMLDDDLSSPELQYSDCSEDGTDGQPHHPEQLEMSWNEQMLPKSQSVNGYNEIQSLYAGEKCGNVWEENRSKTEDRHPVYHPEEGGDEGGSGYSPPSKCEQTDLYHLPENFRPYTNGQKQEFNNQATNVIKFSDPQWNHFQGPSCQGLEPYNKVTYKPYQSSAQNNGSPAQEITGSDT

Legend:
[1] = biological target: T1, Plk4 CP (condensation-proficient mutant S698E, S700E, T704E, T707D), full length (human) (UniProt O00444); assay: co-IP; IP performed with a mixture of individually transfected lysates
T1 sequence: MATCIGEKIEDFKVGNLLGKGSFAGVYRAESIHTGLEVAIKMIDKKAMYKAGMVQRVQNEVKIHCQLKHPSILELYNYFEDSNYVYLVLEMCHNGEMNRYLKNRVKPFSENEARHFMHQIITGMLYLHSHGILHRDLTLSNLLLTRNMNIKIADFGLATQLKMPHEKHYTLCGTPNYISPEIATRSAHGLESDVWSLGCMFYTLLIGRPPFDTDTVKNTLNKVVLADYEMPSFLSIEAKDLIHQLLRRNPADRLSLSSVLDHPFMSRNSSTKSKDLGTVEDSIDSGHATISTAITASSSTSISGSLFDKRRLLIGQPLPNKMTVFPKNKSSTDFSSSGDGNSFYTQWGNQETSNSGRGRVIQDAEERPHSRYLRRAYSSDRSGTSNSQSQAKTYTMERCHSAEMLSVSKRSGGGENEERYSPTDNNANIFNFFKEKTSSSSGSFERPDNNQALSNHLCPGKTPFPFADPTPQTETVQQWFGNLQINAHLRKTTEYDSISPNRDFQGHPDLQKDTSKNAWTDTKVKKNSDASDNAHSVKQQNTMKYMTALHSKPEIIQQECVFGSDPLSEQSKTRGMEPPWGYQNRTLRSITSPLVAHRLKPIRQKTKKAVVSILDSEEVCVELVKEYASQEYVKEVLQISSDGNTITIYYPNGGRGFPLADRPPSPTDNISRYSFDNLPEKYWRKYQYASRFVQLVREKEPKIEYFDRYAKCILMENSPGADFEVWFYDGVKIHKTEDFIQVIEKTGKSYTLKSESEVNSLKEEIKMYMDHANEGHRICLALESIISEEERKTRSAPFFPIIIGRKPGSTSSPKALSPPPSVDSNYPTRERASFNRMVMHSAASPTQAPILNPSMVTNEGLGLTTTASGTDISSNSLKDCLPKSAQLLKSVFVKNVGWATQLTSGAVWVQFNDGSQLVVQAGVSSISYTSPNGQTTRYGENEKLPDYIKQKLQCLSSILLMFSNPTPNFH

[2] = biological target: T2, Polo-like kinase 4 (Plk4) WT, full length (human) (UniProt O00444); assay: co-IP; HEK293T cells cotransfected with the constructs; IP in TBSN buffer (20 mM Tris-Cl pH 8.0, 150 mM NaCl, 0.5% NP-40, 5 mM EGTA, 2 mM MgCl2, 1.5 mM EDTA, 2 mM DTT, 20 mM PNPP); IP samples treated with lambda phosphatase where indicated before SDS-PAGE and immunoblotting
T2 sequence: T1 sequence with E698S, E700S, E704T, D707T

[3] = biological target: T3, Plk4 K41M (KM), kinase-inactive, full length (human) (UniProt O00444); assay: as above
T3 sequence: T1 sequence with K41M, E698S, E700S, E704T, D707T

[4] = biological target: T4, Plk4 KM CP (K41M, S698E, S700E, T704E, T707D), full length (human) (UniProt O00444); assay: as above
T4 sequence: T1 sequence with K41M

[5] = biological target: T1, Plk4 CP (condensation-proficient mutant S698E, S700E, T704E, T707D), full length (human); assay: as above

Row | Molecule | binding [1] | binding [2] | binding [3] | binding [4] | binding [5]
1 | Cep152 (construct not stated) (from UniProt O94986 1-1710) | no binding | – | – | – | –
2 | full-length Cep152 (from UniProt O94986 1-1710) | – | binds | binds | no binding | no binding
3 | B1 | – | binds | binds | no binding | no binding
